Measured values: patent US9872922B2, “Anti-EFNA4 antibody-drug conjugates” (PFIZER, INC., priority 2013, dated 2018)

Tests used:
human EFNA4 = target: T1, human EFNA4 (Homo sapiens, UniProt P52798); experiment: SPR (BIAcore 2000) binding constants, human EFNA4; conditions: Human antigen
T1 construct: using recombinant EFNA4 extracellular domain that was fused to a histidine tag to facilitate purification; histidine tag
T1 sequence (P52798 26-170 limits assumed): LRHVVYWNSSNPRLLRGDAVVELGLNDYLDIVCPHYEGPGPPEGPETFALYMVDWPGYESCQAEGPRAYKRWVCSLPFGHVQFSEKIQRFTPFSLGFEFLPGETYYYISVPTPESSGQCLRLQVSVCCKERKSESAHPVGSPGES
Experimental: (§1) The binding constants of huE22 for human and cynomolgus monkey EFNA4 proteins were determined by surface plasmon resonance (SPR) using BIAcore 2000 (GE Healthcare) using recombinant EFNA4 extracellular domain that was fused to a histidine tag to facilitate purification. The results indicated high affinity of huE22 for both human and cynomolgus monkey EFNA4, see Table 12. The cynomolgus monkey EFNA4 protein sequence is highly homologous to human EFNA4 protein sequence, with 98% identity overall and 98% identity in the extracellular domain. […] The lack of huE22 binding to rat or mouse EFNA4 is likely explained by a non-conserved residue in the rat and mouse EFNA4 sequences within the defined huE22 epitope.

parental HEK293T cells = experiment: Apoptosis by Annexin V / 7AAD staining, parental HEK293T; assay type: cell-based, human; conditions: HEK293T Parental, Annexin V / 7AAD
Source text: (§2) Calicheamicin-generated DNA damage induces apoptosis, which ultimately leads to cell death (Zein et al, 1988; Nicolaou et al, 1994; Prokop et al, 2003).

Ephrin-A1 (EFNA1) = target: T2, Ephrin-A1 (EFNA1) (Homo sapiens, UniProt P20827); experiment: Direct ELISA binding specificity, Ephrin-A1; conditions: biotin-labeled antibody
T2 construct: His; purchased R&D
T2 sequence (P20827 19-182): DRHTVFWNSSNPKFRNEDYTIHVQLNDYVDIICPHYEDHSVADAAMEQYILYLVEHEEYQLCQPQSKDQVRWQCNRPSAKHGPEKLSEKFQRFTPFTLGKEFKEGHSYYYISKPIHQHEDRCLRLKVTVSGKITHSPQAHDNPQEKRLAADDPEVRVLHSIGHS
Experimental: (§3) Further properties were determined using ELISA to analyze the binding specificity of anti-EFNA4 antibodies huE22 and huE47 to Ephrin-A4 (EFNA4) along with homologous family members Ephrin-A1 (EFNA1) and Ephrin-A3 (EFNA3). Antibody binding was determined by direct ELISA with Ephrin-A1-His, Ephrin-A3-huFc, Ephrin-A4-huFc and Ephrin-A5-huFc (all from R&D) coated on BioOne Microlon (Greiner) plates in PBS overnight at 4° C. Biotin-labeled huE22 and huE47 were incubated on the plate for 2.5 hours at room temperature and Streptavidin HRP was used to develop signal from biotin labeled antibody in the absence of interfering human IgG signal.

HEK293T-EFNA4 cells [1] = experiment: Apoptosis by Annexin V / 7AAD staining, HEK293T-EFNA4; assay type: cell-based, human
Source text: as §2

HEK293T-EFNA4 cells [2] = experiment: Cell binding of huE22 and huE22-AcBut-CM ADC, HEK293T-EFNA4; design: species or system human
HEK293T parental cells = experiment: Cell binding of huE22 and huE22-AcBut-CM ADC, HEK293T parental; design: species or system human
rat EFNA4 = target: T3, rat EFNA4 (Rattus norvegicus, UniProt D3ZEN1); experiment: SPR (BIAcore 2000) binding, rat EFNA4; conditions: 400 nM antigen
T3 sequence (D3ZEN1 1-204): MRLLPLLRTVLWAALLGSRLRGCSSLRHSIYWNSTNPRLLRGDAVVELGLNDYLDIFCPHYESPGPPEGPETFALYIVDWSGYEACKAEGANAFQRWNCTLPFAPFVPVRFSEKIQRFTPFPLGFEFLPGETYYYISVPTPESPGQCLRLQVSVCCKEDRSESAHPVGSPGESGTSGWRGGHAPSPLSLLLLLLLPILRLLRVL
Experimental: as §1

Ephrin-A3 (EFNA3) = target: T4, Ephrin-A3 (EFNA3) (Homo sapiens, UniProt P52797); experiment: Direct ELISA binding specificity, Ephrin-A3; conditions: biotin-labeled antibody
T4 construct: purchased R&D
T4 sequence (P52797 23-214): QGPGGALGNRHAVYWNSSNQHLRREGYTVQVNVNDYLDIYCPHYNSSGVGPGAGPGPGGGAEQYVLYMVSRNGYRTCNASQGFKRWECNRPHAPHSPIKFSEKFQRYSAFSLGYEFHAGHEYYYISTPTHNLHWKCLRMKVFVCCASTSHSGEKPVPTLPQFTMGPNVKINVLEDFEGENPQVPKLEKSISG
Experimental: as §3

[3] = HEK293T-EFNA4, 1 ng/mL, Annexin V / 7AAD
[4] = HEK293T-EFNA4, 100 ng/mL, Annexin V / 7AAD
[5] = HEK293T-EFNA4, 1000 ng/mL, Annexin V / 7AAD

B1: huE22 (antibody)
heavy: QVQLVQSGAEVKKPGASVKVSCKASGYTFTGYYIHWVRQAPGQGLEWMGWIYPGNFNTKYNERFKGRVTMTTDTSTSTAYMELRSLRSDDTAVYYCAREDGSPYYAMDYWGQGTSVTVSS[human IgG1 constant region omitted here]
VL: DIVMTQTPLSLSVTPGQPASISCRSSQSLVHSNGNTFLYWYLQKPGQSPQLLIYRVSNRFSGVPDRFSGSGSGTDFTLKISRVEAEDVGVYYCFQATHVPWTFGGGTKVEIK
koff (human EFNA4): 3.3E−03 s − 1
kon (human EFNA4): 1.9E+06 M − 1s − 1
% late apoptosis (parental HEK293T cells; 1 ng/mL): 1.3%
% early apoptosis (parental HEK293T cells; 100 ng/mL): 2.8%
% late apoptosis (parental HEK293T cells; 100 ng/mL): 1.1%
% total apoptosis (parental HEK293T cells; 100 ng/mL): 3.9%
% early apoptosis (parental HEK293T cells; 1000 ng/mL): 1.8%
% late apoptosis (parental HEK293T cells; 1000 ng/mL): 0.8%
% total apoptosis (parental HEK293T cells; 1000 ng/mL): 2.6%
binding to Ephrin-A1 (EFNA1) (Ephrin-A1 (EFNA1)): but not to EFNA1, EFNA3 or EFNA5
induction of apoptosis (Annexin V) (HEK293T-EFNA4 cells [1]; HEK293T-EFNA4): Neither the control ADC nor huE22 mAb induced apoptosis to a significant degree
% early apoptosis (HEK293T-EFNA4 cells [1]; [3]): 4.7%
% late apoptosis (HEK293T-EFNA4 cells [1]; [3]): 3.1%
% total apoptosis (HEK293T-EFNA4 cells [1]; [3]): 7.8%
% early apoptosis (HEK293T-EFNA4 cells [1]; [4]): 6.4%
% total apoptosis (HEK293T-EFNA4 cells [1]; [4]): 8.5%
% early apoptosis (HEK293T-EFNA4 cells [1]; [5]): 8.3%
% total apoptosis (HEK293T-EFNA4 cells [1]; [5]): 10.6%
Cell binding (HEK293T-EFNA4 cells [2]; 0.3 μg/mL): 446
Cell binding (HEK293T-EFNA4 cells [2]; 1.0 μg/mL): 606
Cell binding (HEK293T-EFNA4 cells [2]; 3.0 μg/mL): 739
Cell binding (HEK293T-EFNA4 cells [2]; 10.0 μg/mL): 856
Cell binding (HEK293T parental cells; 0.3 μg/mL): 8.3
Cell binding (HEK293T parental cells; 1.0 μg/mL): 6.8
Cell binding (HEK293T parental cells; 3.0 μg/mL): 6.1
Cell binding (HEK293T parental cells; 10.0 μg/mL): 14.5
binding to rat antigen (rat EFNA4): no huE22 binding to rat antigen was detected
binding to rat antigen (rat EFNA4; listed as huE22 mAb): No binding detected at
binding to Ephrin-A3 (EFNA3) (Ephrin-A3 (EFNA3)): but not to EFNA1, EFNA3 or EFNA5
